In all, about 48,000 compounds went through this assay and about 450 (0.94%) were called active. Inconclusive results (about 19%) are left out. Calls follow the shape of the dose curve; as a rule, active = well fitted inhibition curve with a large enough effect; inconclusive = small, poorly fitted or top-dose-only effect; inactive = no such curve, though single readings can be large or run the other way. Some of the results follow.
Assay: Primary qHTS for Identification of Small Molecule Inhibitors of Huntingtin Promoter Activity; also: nearly all actives have a fitted effect of over 50% in size
Conditions: HEK293 HTT promoter firefly luciferase reporter (activity 0% = vehicle and -100% = no light), 24 h; series mostly up to 57.5 µM; activity change, negative = inhibition: at the top concentration
Outline: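 Firefly luciferase readout (Dual-Glo, 10 min RT) after 24 h, 37 °C compound exposure (final up to 57.5 uM) of HEK293 reporter cells cultured 24 h beforehand; PTC124 at 50 uM final as control inhibitor; activity scaled vehicle 0%, zero RLU -100%.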

| SMILES | activity change, negative = inhibition |
| --- | --- |
| COCCNC(=O)CCCN1C(=O)CCn2nc(-c3cccn3C)cc21 | inactive: 8.74% |
| Cc1cc2ccccc2n1CCNC(=O)c1ccc(F)cc1 | inactive: -20.1% |
| CCN1C(=O)C2(c3ccccc31)c1c(oc3ccc(C)cc3c1=O)C(=O)N2CCCOC(C)C (centres undefined) | inactive: -11% |
| Cc1cc(O)c(C(c2ccc(Cl)cc2)N2CCN(c3ccccc3)CC2)c(=O)n1Cc1ccco1 (centres undefined) | inactive: -7.06% |
| O=C(c1ccccc1F)N1CCC(c2nc3c(nnn3Cc3cccc(F)c3)c(=O)[nH]2)CC1 | inactive: 0.456% |
| Cc1oc(-c2ccc(C(=O)NC(C)c3ccccc3)cc2)nc1CS(=O)(=O)c1ccccc1 (centres undefined) | inactive: -10.2% [at 11.5 µM] |
| COC(=O)c1ccccc1NC(=O)CCCN1C(=O)C(c2ccccc2)Oc2cccnc21 (centres undefined) | inactive: -15.5% |
| Cc1ccc(Nc2ncnc3c2cnn3-c2ccc(C)cc2)cc1 | inactive: 15.3% |
| COc1ccc(OCC(=O)N(Cc2cccc(OC)c2)C2CCS(=O)(=O)C2)cc1 (centres undefined) | inactive: -2.35% |
| COc1ccc(C)cc1NS(=O)(=O)c1c(C)nc2sc(C)cn2c1=O | inactive: -24.5% |
| CCOc1ccccc1NC(=O)CSc1ccc2nnc(CCNS(=O)(=O)c3ccccc3)n2n1 | inactive: -1.23% |
| COCCNC(=O)CCCn1c(=O)[nH]c2ccsc2c1=O | inactive: 3.92% |
| Brc1ccc(-c2noc(-c3ccccc3)n2)o1 | inactive: 34.7% |
| Cc1ccc(Cl)cc1N(C)C(=O)c1noc2c1CCCCC2 | inactive: -19.7% |
| COc1ccccc1NC(=O)C1=C(C)Nc2nc(SCC(=O)c3ccc(C)cc3)nn2C1c1ccccc1C (centres undefined) | inactive: 5.11% |
| COc1ccc(NC(=O)c2sc3nc(C)c(C(=O)Nc4ccc(C)cc4C)c(-c4ccccc4Cl)c3c2N)cc1 | inactive: -23.9% |
| CSCCC(NS(=O)(=O)c1ccc2c(c1)oc(=O)n2C)C(=O)NCc1ccc(F)cc1 (centres undefined) | inactive: -11.8% |
| COc1ccc(-n2cc(C(=O)N(C)c3cc(C)ccc3OC)c3ccccc3c2=O)cc1 | inactive: -18.3% |
| CCOc1ccc(NS(=O)(=O)c2ccc3[nH]cc(C(=O)NCCOC)c(=O)c3c2)cc1 | inactive: 18.7% |
| CN(C)CCNC(=O)CCCn1c(=O)c2cccn2c2ccccc21 | inactive: -9.05% |
| CC1=C(C(=O)Nc2cccnc2)C(c2ccccc2)n2nc(SCc3ccccc3)nc2N1 (centres undefined) | inactive: -2.64% |
| O=C(Cn1nc(-c2ccccc2)c2cnc3ccccc3c21)Nc1ccccc1 | inactive: -4.88% |
| Cc1ccc(Cn2nnc3sc4c(c3c2=O)CCC(C)C4)cc1 (centres undefined) | inactive: -11.6% |
| CCC(=O)N1CCc2cc(CNS(=O)(=O)c3c(C)cc(C)cc3C)ccc21 | inactive: -15.9% |

| SMILES | activity change, negative = inhibition |
| --- | --- |
| Cc1ccc2nc(-c3ccc(Cl)c(NC(=O)c4ccc5c(c4)OCCO5)c3)oc2c1 | inactive: -18.8% |
| Cc1nnc(NCc2ccc(Cl)cc2)c2c1nnn2Cc1ccc(F)cc1 | inactive: -5.62% |
| COC(=O)c1ccccc1NC(=O)c1cc(-c2ccc(Cl)cc2)on1 | inactive: -0.489% |
| Cc1nc2ccccc2n1CCc1nc2c3ccccc3nc(SCC(=O)Nc3cccc(C(F)(F)F)c3)n2n1 | inactive: -17.5% |
| CCc1ccc2ncc(S(=O)(=O)c3ccc(Cl)cc3)c(N3CCN(CC)CC3)c2c1 | inactive: -19.2% |
| Cc1cc(C)nc(NS(=O)(=O)c2ccc(NC(=O)c3ccccc3O)cc2)n1 | inactive: -9.52% |
| COc1ccc2c(Sc3ccccc3)c(C(=O)NCC(C)c3ccccc3)[nH]c2c1 (centres undefined) | inactive: 15.6% |
| Cc1cc(C)cc(-n2c(SCC(=O)N3CCCC3)nc3c([nH]c4ccccc43)c2=O)c1 | inactive: -9.73% |
| O=C(CCC1N=C2c3ccccc3N=C(SCc3ccccc3Cl)N2C1=O)NCCc1ccccc1 (centres undefined) | inactive: -1.89% |
| Cc1ccccc1NC(=O)CSc1nc(-c2ccc(F)cc2)nc2c1Cc1ccccc1O2 | inactive: 1.03% |
| COc1ccc(NC(=O)C2CCN(S(=O)(=O)c3ccc4[nH]c(=O)ccc4c3)CC2)cc1Cl | inactive: -12% |
| COc1cc(OC)c(NC(=O)C(c2ccccc2)N2Cc3ccccc3C2=O)cc1Cl (centres undefined) | inactive: -21.6% |
| CCc1nnc(SCc2cccc(F)c2)c2cc3sc(C)cc3n12 | inactive: -22.8% |
| CCOc1ccc(N2CC(c3nc4ccccc4n3CCCOc3ccccc3OC)CC2=O)cc1 (centres undefined) | inactive: -28.4% |
| CCS(=O)(=O)N1CC(=O)N(c2ccc(Cl)cc2C)C(C)(C(=O)NC2CCCCCC2)C1 (centres undefined) | inactive: -1.23% |
| CC(C)CN(CCCNC(=O)c1cc(-c2ccc(Br)s2)nc2ccccc12)CC(C)C | inactive: -22.8% |
| COc1ccc(CCNC(=O)C2(c3cccs3)CCOCC2)cc1 | inactive: -12.5% |
| COCCCNC(=O)c1ccc(Cn2c(=O)c3ccccc3n(CC(=O)Nc3c(C)cccc3C)c2=O)cc1 | inactive: -8.68% |
| CCCCCCNc1nc2c(c(=O)n(C)c(=O)n2C)n1Cc1cccc(C)c1 | inactive: -21.8% |
| CCOc1cc(C(=O)Nc2ccc3nc(Nc4cccc(Cl)c4)cc(C)c3c2)cc(OCC)c1OCC | inactive: -11.1% |
| Cc1nnc(SCc2cc(=O)n3cccc(C)c3n2)s1 | inactive: 14.5% |
| Cc1nn2c(C)c(C(=O)N3CCN(c4ccccc4F)CC3)cnc2c1-c1ccc(F)cc1 | inactive: -6.53% |
| Cc1cccc(CCNC(=O)C2CCC(CNS(=O)(=O)c3ccccc3)CC2)c1 (centres undefined) | inactive: 0.957% |
| CCCC(CCC)C(=O)Nc1cccc(-c2nc3cccnc3s2)c1C | inactive: -10.1% |

| SMILES | activity change, negative = inhibition |
| --- | --- |
| CNS(=O)(=O)Cc1ccc2[nH]cc(CCN(C)C)c2c1 | inactive |
| O=C(Nc1ccc(F)c(Cl)c1)C1CCN(C(=O)c2ccc(F)cc2)CC1 | inactive: -19.2% |
| N#Cc1ccccc1Cn1c(=O)n(CCCC(=O)NCc2ccccc2Cl)c(=O)c2ccccc21 | inactive: 0.612% |
| Cc1ccc(-c2cc3ncc(C(=O)c4cc(Cl)c(C)cc4O)cn3n2)cc1 | inactive: 1.21% |
| CCN(C(=O)CSc1ncc2c(n1)-c1cc(Cl)ccc1N(Cc1ccccc1)S2(=O)=O)c1cccc(C)c1 | inactive: -15.2% |
| CCOc1ccc(Br)cc1C1C(C(=O)OC)=C(C)NC2=C1C(=O)c1ccccc12 (centres undefined) | inactive: -19.7% |
| CCc1c(C)sc2c1CCN(C(=O)Nc1ccccc1C(=O)OC)C2c1ccc(OC)cc1 (centres undefined) | inactive: -9.01% |
| COc1ccc(OC)c(C2Nc3c(C)cc(C)cc3-c3cc(C)nn32)c1 (centres undefined) | inactive: -24.8% [at 11.5 µM] |
| Cc1ccc(NS(=O)(=O)c2ccc3c(c2)CC(=O)N3)cc1Cl | inactive: -17.9% |
| O=C(NCc1ccc(Cl)cc1)C1=Cc2cc(Br)ccc2OC1 | inactive: -16.3% |
| CCC(=O)N1CCc2cc(Br)cc(S(=O)(=O)N3CCCC(C(=O)Nc4cc(C)ccc4OC)C3)c21 (centres undefined) | inactive: -3.94% |
| CCn1c(=O)cc(OCC(=O)N(C)c2ccc(OC)cc2)c2ccccc21 | inactive: 11.5% |
| CCC(CC)(CC(=O)Nc1cccc(/C=C/c2nc(C3CCC3)cs2)c1)C(=O)O | inactive: 23.3% |
| Cc1ccc(Cl)cc1N1CCN(C(=O)c2cc3ccc4cccnc4c3[nH]2)CC1 | inactive: 11.4% |
| NC(=O)c1ncn([C@@H]2O[C@H](CO)[C@@H](O)[C@H]2O)n1 | inactive: -13.6% |
| COc1cc(OC)c(NC(=O)c2c(N3CCCC3=O)c3cc(C)ccc3n2C)cc1Cl | inactive: -2.57% |
| COc1ccc(Cl)cc1C(=O)Nc1ccc2nc(Nc3cccc(Cl)c3)cc(C)c2c1 | inactive: -18.7% |
| CCn1c(=O)c2cc(C(=O)NCCCN3CCN(c4ccc(F)cc4)CC3)sc2c2ccccc21 | inactive: 0.0507% |
| CCOc1ccccc1NC(=O)Cn1ncc2c([nH]c3ccccc32)c1=O | inactive: -8.65% |
| Cc1ccccc1OCC(=O)Nc1nnc(S(=O)(=O)N2CCCC2)s1 | inactive: -11% |
| CC(C)Oc1ccc(CNC(=O)c2ccc3c(c2)nc2n3CCCCC2)cc1 | inactive: 43.6% |
| CCOC(=O)[C@H](CCc1ccccc1)N[C@@H](C)C(=O)N1[C@H](C(=O)O)C[C@@H]2CCC[C@@H]21 | inactive: -3.12% |
| COc1ccc(C2=C(C)C(=O)N(Cc3ccc(C(=O)NC(C)c4ccccc4)cc3)S2(=O)=O)cc1 (centres undefined) | inactive: -7.09% |
| Cc1cc(=O)n2nc(N3CCC(C(=O)Nc4c(C)cccc4C)CC3)sc2n1 | inactive: -15.2% |

| SMILES | activity change, negative = inhibition |
| --- | --- |
| CC1CCN(S(=O)(=O)c2cc3c4c(c2)C(C)C(=O)N4CCC3)CC1 (centres undefined) | inactive: -14.5% |
| O=C(NC1CCCCCC1)C1c2ccccc2C(=O)N1Cc1ccc(F)cc1 (centres undefined) | inactive: -4.97% |
| COc1ccc(CNC(=O)CN2C(=O)CSc3ccc(S(=O)(=O)N(C)C)cc32)cc1 | inactive: -1.9% |
| CCc1cccc(NC(=O)Cn2c(=O)n(CCC(=O)NCc3ccccc3Cl)c(=O)c3sccc32)c1 | inactive: -5.9% |
| Oc1c(C(c2ccccc2)N2CCOCC2)sc2nc(-c3ccco3)nn12 (centres undefined) | inactive: -0.968% |
| Nc1c(C(=O)Nc2cccc(F)c2)nnn1-c1cccc(C(F)(F)F)c1 | inactive: 32.2% |
| Cc1cc(C)cc(NC(=O)c2sc3nc4n(c(=O)c3c2C)N=C(c2ccccc2)CS4)c1 | inactive: 13.8% |
| O=C(Cn1ncc2c3ccccc3n(Cc3cccc(Cl)c3)c2c1=O)NCCCN1CCCCC1 | inactive: 1.35% |
| CCOCCCNc1nc2c(S(=O)(=O)c3ccc(CC)cc3)nnn2c2ccc(Cl)cc12 | inactive: 5.89% |
| Cc1ccc(CNC(=O)Cn2c(=O)cc(C)c3c(C)nn(-c4cccc(F)c4)c32)cc1 | inactive: 3.23% |
| Cc1ccc(C)c(N2CCN(S(=O)(=O)c3ccc(-c4cnc(C5CC5)o4)cc3)CC2)c1 | inactive: -18.1% |
| Cc1ccc(NC(=O)CSc2nc(-c3cccs3)nc3cc(=O)[nH]n23)cc1C | inactive: 6.6% |
| CCOc1ccccc1CN1CCc2nc(N3CCN(C)CC3)ncc2C1 | inactive: -12.8% |
| O=C(NCCc1ccccc1)C1CCN(Cc2cc3ccccc3n2Cc2ccccc2)CC1 | inactive: -8.91% |
| COc1ccc(-c2cn3cccnc3n2)cc1NC(=O)Nc1cc(C)ccc1C | inactive: 24.2% |
| CCOc1ccc(-c2cc(C(=O)NC(C)c3ccccc3)c3ccccc3n2)cc1 (centres undefined) | inactive: 4.4% |
| COc1ccc(COC(=O)C2=C(C)NC(=O)CC2c2cccc(Cl)c2Cl)cc1 (centres undefined) | inactive: -9.38% |
| CN1C(C(=O)c2ccccc2)=C(NC(=O)c2ccc(F)cc2)c2ccccc2S1(=O)=O | inactive: -15.7% |
| O=C(Nc1ccc(C(=O)N2CCN(c3ccccc3F)CC2)cc1)c1nsc2ccccc12 | inactive: -21.2% |
| CN(C)CCN(Cc1ccco1)C(=O)c1cc2c(s1)-c1ccccc1OC2 | inactive: -27.6% |
| CCOC(=O)N1CCc2c(sc3c2c(=O)n(-c2ccc(F)cc2)c(=O)n3CC(=O)c2ccc(Cl)cc2)C1 | inactive: -9.38% |
| Cc1cccc(C(=O)NC2(C(F)(F)F)N=C(c3ccccc3)N(C3CCCCC3)C2=O)c1 (centres undefined) | inactive: 2.39% |

Source: PubChem BioAssay AID1508623 (National Center for Advancing Translational Sciences (NCATS), 2021)
